# Measured values as given in PubChem BioAssay AID1347417 (National Center for Advancing Translational Sciences (NCATS), 2020).
# Screen size: about 120,000 compounds; about 5,300 (4.4%) were called active. The inconclusive results got no clear call from the source; some entries with a clear call stand among them for comparison. The call rests on the fitted dose curve; in most records, active means well fitted inhibition curve with a large enough effect; inconclusive means small, poorly fitted or top-dose-only effect; inactive means no such curve, though single readings can be large or run the other way. Where the call is inconclusive, the potency comes from a doubtful curve fit.
# Test: qHTS Primary assay for Inhibitors of Plasmodium falciparum Dd2 growth in vitro; further: nearly all actives have a fitted effect of over 65% in size;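 on activity, negative = inhibition: plate controls were DMSO vehicle for no effect and reference drug for full effect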
# Details: P. falciparum Dd2 growth, SYBR Green, 72 h; activity, negative = inhibition: at 28.9 µM (top of the series) unless noted; series mostly up to 28.9 µM
# Outline: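 Infected erythrocytes (Dd2, 0.3% parasitemia, 2.5% hematocrit final) are added to compound in RPMI-1640/Albumax II medium, grown 72 h at 37C in low oxygen, then lysed with saponin/Triton-X containing SYBR Green and read by fluorescence.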
# Potency means the concentration at half of the fitted maximal effect; tags describe the fitted curve by direction and shape.
Compound,Potency,"activity, negative = inhibition",outcome
O=C(NC1CCN(Cc2ccccc2)CC1)C1CCc2ncc(-c3ccsc3)n2C1 (stereo not given),active: 8.91 µM,–,–
Cc1cc(=O)n(CC(=O)N2C[C@@H](C(=O)O)[C@H](C3CC3)C2)nc1C,–,inactive: -3.45%,–
Cc1noc(-c2cn(C3CCN(C(=O)c4cc(Cl)ccc4F)C3)nn2)n1 (stereo not given),–,–,inactive
COc1ccc(/C=C\c2onc(C)c2S(=O)(=O)N2CCC(C(=O)Nc3cccc(OC)c3)CC2)cc1,active: 8.91 µM,–,–
Cc1nn(-c2ccccc2)c(C)c1[C@@H]1C=C[C@@H](NC(=O)c2ccco2)C1,active: 10 µM,–,–
COc1ccc(-c2nc(C(C)C)nc3c2CCN(C(=O)c2ccc(Cl)nc2)CC3)cc1,"inconclusive: 7.08 µM [inhibitor, partial curve, poor fit]",–,–
COc1ccccc1C(=O)Nc1sc(Nc2ccccc2)nc1C(N)=O,–,inactive: 39.7%,–
O=C(c1ccc2c(c1)N(Cc1ccccc1)C(=O)c1ccccc1S2(=O)=O)N1CCN(Cc2ccccc2)CC1,active: 8.91 µM,–,–
Cc1cccc(NC(=O)Cn2c(=O)n(CCCCCC(=O)NCc3ccc4c(c3)OCO4)c(=O)c3sccc32)c1,"inconclusive: 17.8 µM [inhibitor, single point]",–,–
Cc1cc(Cl)ccc1OCC(=O)N1[C@@H]2CC[C@H]1CC(NC(=O)c1ccncc1)C2 (stereo not given in full),–,–,inactive
COCCn1c(=O)n([C@H]2CCCN(S(=O)(=O)c3cccc(OC)c3)C2)c2ncccc21,"inconclusive: 17.8 µM [inhibitor, single point]",–,–
COC(=O)c1scc(-c2ccc(C)cc2)c1S(=O)(=O)Nc1cc(C)ccc1OC,"inconclusive: 11.2 µM [inhibitor, single point]",–,–
CCOC(=O)Cn1c(=O)n(C2CCCCC2)c2nc(-c3c(F)cccc3Cl)nc(C(N)=O)c21,"inconclusive: 17.8 µM [inhibitor, single point]",–,–
CC1=C[C@@H](CNC(=O)[C@@H]2CCCC[C@@H]2C(=O)O)[C@H](C(C)C)C[C@H]1Cc1nc2c(C)cccc2[nH]1,"inconclusive: 0.794 µM [inhibitor, single point]",–,–
Cc1ccc(-c2cn3ccc(C)cc3n2)cc1,"inconclusive: 10 µM [inhibitor, single point]",–,–
Cc1cc(C)cc(NC(=O)CSc2nc3nccnc3c(=O)n2CCc2c[nH]c3ccccc23)c1,"inconclusive: 8.91 µM [inhibitor, single point]",–,–
CN(C)Cc1nc(C(=O)N2CCn3nc(CCC(=O)O)cc3C2)cs1,–,inactive: -13.3%,–
CC(NC(=O)COc1ccc(NC(=O)C2CC2)cn1)c1cccs1 (stereo not given),–,inactive: 25.9%,–
COc1ccc(C(=O)c2sc(Nc3ccccc3)nc2N)cc1,active: 8.91 µM,–,–
O=C(NCc1cccs1)c1cc(C2CC2)nc2onc(C3CCNCC3)c12,"inconclusive: 20 µM [inhibitor, partial curve, poor fit]",–,–
COc1ccc(C(=O)N2CCC3(CC2)CC(OC)CCO3)cn1 (stereo not given),–,inactive: -7.85%,–
NC(=O)CO[C@@H]1CO[C@H]2[C@@H]1OC[C@@H]2NC(=S)NC1CCCCC1,–,inactive: -10.5% [at 44.1 µM],–
O=C1NC2(Cc3ccccc31)CN(C(=O)c1ccc(Cl)cc1)C2,–,inactive: 4.32%,–
O=C(NCC1CCCO1)c1cc2n(n1)CC(c1ccc(Br)cc1)OC2 (stereo not given),–,–,inactive

Compound,Potency,"activity, negative = inhibition",outcome
Cc1ccc(C(=O)N/C(=C\c2ccc(Cl)cc2)C(=O)NC2CCCCC2)cc1,"inconclusive: 10 µM [inhibitor, single point]",–,–
Cc1nn(Cc2ccccc2)c(C)c1[C@@H]1C=C[C@@H](NC(=O)CC2(CC(=O)O)CCCC2)C1,"inconclusive: 17.8 µM [inhibitor, single point]",–,–
CNC(=O)[C@@H]1CN(C(=O)CCc2nc3ccccc3s2)C[C@H]1c1n[nH]c(C)n1,–,inactive: -19.4%,–
COc1ccccc1-c1[nH]ncc1CN1CCCCCNC(=O)CC1c1ccccc1 (stereo not given),"inconclusive: 5.01 µM [inhibitor, partial curve]",–,–
CCNc1ncnc2sc3c(c12)CCN(Cc1ccncc1)C3,active: 12.6 µM,–,–
O=C(NC1CCCC1)C1CCc2nc(N3CCN(C(=O)C4CCC4)CC3)sc2C1 (stereo not given),"inconclusive: 3.98 µM [inhibitor, single point]",–,–
Cc1ccc(-c2cc(C(=O)N[C@H]3Cc4ccccc4[C@@H]3N)n[nH]2)s1,–,–,inactive
CCCn1cc(-c2ccnc(NC3CCN(Cc4cccnc4)CC3)n2)c(C)n1,"inconclusive: 8.91 µM [inhibitor, partial curve, poor fit]",–,–
COc1ccccc1C(=O)Nc1ccc2c(c1)CN(Cc1ccc(F)cc1)C(=O)C(C)O2 (stereo not given),"inconclusive: 3.98 µM [inhibitor, single point]",–,–
O=C(O)CC[C@@H]1CN(c2nnnn2-c2ccccc2)CC[C@@H]1N1CCOCC1,–,inactive: 8.28%,–
CCc1ccc(OCCn2c(C3CC(=O)N(Cc4ccc(F)cc4)C3)nc3ccccc32)cc1 (stereo not given),"inconclusive: 10 µM [inhibitor, single point]",–,–
Cc1ccc(-n2c(SCC(=O)N3CCCc4ccccc43)nc3c([nH]c4ccccc43)c2=O)cc1,"inconclusive: 17.8 µM [inhibitor, single point]",–,–
CCc1ccc(C2=CC(c3c(F)cccc3Cl)n3c(nc4ccccc43)N2)cc1 (stereo not given),–,inactive: 24.2%,–
CCOC(=O)Cc1ccc(NC(=O)N(Cc2ccc(CC)cc2)Cc2cn[nH]c2-c2ccc(OC)cc2)cc1,"inconclusive: 7.08 µM [inhibitor, single point]",–,–
COc1cccc(C(=O)Nc2nc(-c3ccc(Br)cc3)ns2)c1,–,inactive: 11%,–
Cc1ccccc1OCCn1c(CCNC(=O)C2CCCCC2)nc2ccccc21,"inconclusive: 14.1 µM [inhibitor, single point]",–,–
Cc1ccc(CN2CCCOCCNC(=O)[C@@H]3CCCC[C@@H]32)s1,active: 5.01 µM,–,–
CN(C)CCNC(=O)Cc1c[nH]c2ncc(-c3ccccc3)cc12,–,inactive: -20.6% [at 44.1 µM],–
CC1CCCN(CCCNC(=O)Cn2ncc3c([nH]c4ccccc43)c2=O)C1 (stereo not given),"inconclusive: 5.01 µM [inhibitor, single point]",–,–
COc1ccc(C(=O)NC2CCN(c3cc(-c4cccs4)[nH]n3)C2)c(C)c1 (stereo not given),–,–,inactive
COCC1CN(C)CC12CCN(C(=O)Cc1cccc(F)c1)CC2 (stereo not given),–,–,inactive
CNC(=O)N1CCC(C2CCN(C(=O)Cc3ccc(OC)c(Cl)c3)C2)CC1 (stereo not given),"inconclusive: 8.91 µM [inhibitor, single point]",–,–
COc1ccc(C(=O)Nc2ccc3nc(SCC(=O)N(C)c4ccccc4)sc3c2)cc1,"inconclusive: 11.2 µM [inhibitor, single point]",–,–
CN(C)C(=O)CC1CCOC2(CCNCC2)C1 (stereo not given),–,inactive: 6.8%,–

Compound,Potency,"activity, negative = inhibition",outcome
O=c1c2nc(-c3ccsc3)ccc2ncn1-c1ccccc1,–,–,inactive [at 44.1 µM]
Cc1nc2c(c(-c3ccc(O)cc3)n1)CN(Cc1cccnc1)CC2,–,–,inactive [at 44.1 µM]
CSc1cccc(NC(=O)N2CCC(OC3CCN(Cc4ccccc4)CC3)CC2)c1,"inconclusive: 2.51 µM [inhibitor, full curve, poor fit]",–,–
Cc1ccccc1CC1(CO)CCCN(c2ccc(-c3nccn3C)nn2)C1 (stereo not given),"inconclusive: 11.2 µM [inhibitor, single point]",–,–
COc1ccc(-c2cc(-c3ccc([S+](C)(=O)[O-])cc3)cn3cncc23)cc1,"inconclusive: 7.08 µM [inhibitor, partial curve, poor fit]",–,–
O=C(NCc1cccnc1)c1nc(-c2cc(Cl)cc(Cl)c2)c2ccccn12,"inconclusive: 17.8 µM [inhibitor, single point]",–,–
O=C(Cn1cccc1-c1nc(-c2ccccc2)no1)Nc1ccccc1F,active: 3.98 µM,–,–
Cc1ccc(Cl)cc1N1CCN(C(=O)CSc2cc(=O)n(C)c3ccccc23)CC1,"inconclusive: 17.8 µM [inhibitor, single point]",–,–
COc1ccc(CN(C)C2CCOc3ccccc32)cc1 (stereo not given),"inconclusive: 31.6 µM [inhibitor, single point]",–,–
CCNC(=O)N1CCCC(Cc2ncc(C)n2C(C)C)C1 (stereo not given),"inconclusive: 5.01 µM [inhibitor, partial curve]",–,–
Cn1cc([C@@H](NC(=O)c2scc3c2CCCC3)C2CC(O)C2)cn1 (stereo not given in full),inactive,–,–
Cc1cccc(CC(=O)Nc2ccc3nc(N4CCC(C)CC4)cc(C)c3c2)c1,"inconclusive: 12.6 µM [inhibitor, single point]",–,–
CN(Cc1ccccc1)Cc1nnc(C(=O)N2CCC[C@@H]2c2ccc(Br)cc2)n1Cc1ccccc1,–,–,inactive
Cc1ccccc1-c1ccc2n(c1=O)C[C@H]1C[C@@H]2CN(S(=O)(=O)c2ccccc2C#N)C1,"inconclusive: 12.6 µM [inhibitor, single point]",–,–
Cc1c(C(=O)Nc2ccc(F)c(C(F)(F)F)c2)sc2nc(-c3ccccc3)cn12,active: 11.2 µM,–,–
COC[C@@H]1CN(C(=O)c2cccn2C)C[C@H]1c1ccncc1,–,inactive: 14.1%,–
Cc1noc([C@@H]2CN(C3CCCCCC3)C[C@H]2CO)n1,"inconclusive: 11.2 µM [inhibitor, partial curve]",–,–
O=C(c1ccc(F)cc1)N1CCC(c2nc3ccccc3s2)CC1,–,inactive: 62%,–
CN(C)CC(=O)Nc1ccc2n(c1=O)C[C@H]1C[C@@H]2CN(C(=O)c2ccc3ccccc3c2)C1,"inconclusive: 2.82 µM [inhibitor, full curve]",–,–
CCOc1ccc(NC(=O)c2ccc3c(c2)N(CC)C2CCCCCN2C3=O)cc1 (stereo not given),"inconclusive: 2.24 µM [inhibitor, partial curve, poor fit]",–,–
O=C(NC[C@H]1Cn2c(-c3ccc(Cl)cc3)cnc2CO1)C1CCCC1,"inconclusive: 31.6 µM [inhibitor, single point]",–,–
CC(C)N(C(=O)Cn1cc(S(=O)(=O)Cc2ccc(Br)cc2)c2ccccc21)C(C)C,"inconclusive: 11.2 µM [inhibitor, single point]",–,–
